Measured values taken from PubChem BioAssay AID493208 (National Center for Advancing Translational Sciences (NCATS), 2011).
Screen size: about 44,000 compounds; about 340 (0.77%) were called active. About 5% were inconclusive and are not listed. Calls come from the whole dose curve; as a rule, active = well fitted inhibition curve with a large enough effect; inconclusive = small, poorly fitted or top-dose-only effect; inactive = flat fitted curve, though single readings scatter. This is one part of the list.

Experiment: Acumen qHTS Assay for Inhibitors of the mTORC1 Signaling Pathway in MEF (Tsc2-/-, p53-/-) Cells: Sytravon;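 note: plate controls were DMSO for no effect and rapamycin for full effect; nearly all actives have a fitted effect of over 50% in size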
Settings: phospho-rpS6 immunofluorescence/PI, 24 h; series mostly up to 38.3 µM; activity change, negative = inhibition: at the top concentration
Outline: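 Cell-based qHTS: Tsc2-/- p53-/- MEF, 24 h cpd, 37 °C; fix/perm, anti-phospho-S6 Alexa-488 + PI; Acumen 488 nm scan; pS6/PI ratio, % positive cells; rapamycin 7.5 nM = inhibition ref; PI count = viability.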

Activity change, negative = inhibition, inactive:
C=Cc1ccc(CSc2nc(-c3ccc(Cl)cc3)nc3c2Cc2c(CO)cnc(C)c2O3)cc1 1.69%, Cn1c(NCc2ccccc2F)nc2ccccc21 0.0941%, COc1cc(Cl)c(C)cc1NC(=O)CSCc1nc(-c2ccc(OC)c(OC)c2)no1 -14%, Cc1ccc(C)c(Cn2cc(CCC(=O)NC3CCCCC3)c3ccccc32)c1 5.57%, Cc1cccc(C)c1NC(=O)C1CCN(S(=O)(=O)c2cccc3nsnc23)CC1 1.82%, COc1ccc(-c2nc(SCC(=O)NC3CCCC3)c(-c3ccccc3)[nH]2)cc1OC -4.25%, CCOC(=O)C1CCN(C(=O)c2ccc3c(c2)sc2nc(-c4ccc(OCC)cc4)cn23)CC1 0.205%, Cc1ccc(NC(=O)Cn2ccn(Cc3ccc(Cl)cc3)c(=O)c2=O)cc1C -8.02%, CC(=O)c1cccc(-n2c(CCC(=O)O)ccc2-c2ccccc2)c1 -17.8%, COc1ccc(OC)c(Nc2cc(C(=O)NCc3ccccc3)c3ccccc3n2)c1 -6.29%, Cc1ccc(-n2ncc3c(Nc4ccc5c(c4)OCCO5)ncnc32)cc1C 2.68%, CCOc1ccccc1C(=O)N1CCc2cc(OC)c(OC)cc2C1COc1ccc2c(C)cc(=O)oc2c1 (stereo not given) -2.81%, COc1ccc(CNC(=O)c2cnn(-c3ccc(C)cc3)c2C2CCN(C(=O)OC(C)(C)C)CC2)cc1 -2.96%, CCOc1ccc(NC(=O)NC(CC)Cn2nnc3ccccc3c2=O)cc1 (stereo not given) -18.4%, Cc1ccc(OCCSc2nc3ccccc3n2CCC(=O)O)cc1C 3.71%, COc1ccc(/C=C(\NC(=O)c2ccccc2)C(=O)NC2CCCCC2)cc1 -3%, CCN1CCN(C(c2ccc(Cl)cc2)c2c(O)cc(C)n(CCOC)c2=O)CC1 (stereo not given) 3.49%, O=C(CSc1ncc(S(=O)(=O)c2ccc(Br)cc2)c(=O)[nH]1)NCc1ccccc1Cl -0.549%, COc1ccc(-c2cc(C(=O)Oc3ccc(Cl)cc3)c3ccccc3n2)cc1 7.43%, Cc1cc(C)cc(N(CC(=O)Nc2ccc(C(F)(F)F)cc2)S(=O)(=O)c2c(C)[nH]c(=O)[nH]c2=O)c1 -12.1%, CCCCn1cnc2cc(NC(=O)c3cc(OC)c(OC)c(OC)c3)ccc21 3.37%, COc1ccccc1C(=O)N1CCC(c2c[nH]c3ccccc23)(c2c[nH]c3ccccc23)CC1 -8.32%, O=C(CSc1nc(-c2ccccc2)[nH]c1-c1ccc(F)cc1)NC1CCCC1 -2.72%, CCC(=O)N1CCc2cc(S(=O)(=O)NC(Cc3ccccc3)C(=O)Nc3ccc(Cl)cc3)ccc21 (stereo not given) 0.181%, COc1ccc(CCNC(=O)c2cc3cccc4c3n2CC(C)S4)c(OC)c1OC (stereo not given) -6.36%, CCCC(=O)Nc1c(C(=O)N2CCN(c3ccccc3)CC2)oc2ccccc12 -2.92%, CC(C)c1ccc(S(=O)(=O)Nc2cc3c(cc2NCc2ccccc2)n(C)c(=O)n3C)cc1 -10.8%, COc1ccccc1C(=O)CC1(O)C(=O)N(CC(N)=O)c2ccccc21 (stereo not given) 13.5%, CCc1ccccc1NC(=O)C1=CC(c2ccc3c(c2)OCO3)=NS(=O)(=O)N1C -2.5%, CCOc1ccccc1NC(=O)Cn1c(=O)n(Cc2ccco2)c(=O)c2cccnc21 0.378%, CC(C)(C)c1ccc(C(=O)Nc2ccc3nc(SCC(=O)N4CCCC4)sc3c2)cc1 -25.6%, CC(C)(C)OC(=O)N1CCC(c2c(C(=O)O)cnn2-c2ccc(F)cc2F)CC1 -5.48%, O=C(CN1C(=O)COc2ccc(S(=O)(=O)N3CCCCCC3)cc21)N1CCN(c2cccc(Cl)c2)CC1 -5.39%, COc1ccc(C(=O)c2cn(Cc3ccc(F)cc3)c3c(F)cc(F)cc3c2=O)cc1 2.82%, Fc1ccc(-c2nnc(CN3CCN(c4ccccn4)CC3)o2)cc1 1.63%, O=C(C1COc2cc(S(=O)(=O)Nc3ccc(Cl)cc3)ccc2O1)N1CCCC1 (stereo not given) 0.696%, CCc1ccccc1N(C)C(=O)c1cc2c(s1)-c1c(C)cccc1OC2 -7.49%, Cc1ccc(Cn2c(C)c(CNCc3ccccc3F)c(C(=O)O)c2C)cc1 -0.179%, CC(C)NS(=O)(=O)c1ccc(OCC(=O)N2CCN(c3cccc(Cl)c3)CC2)cc1 1.1%, COc1cc(C2C(C(=O)Nc3ccccc3)=C(C)Nc3nc(SCC(=O)c4ccc(C)cc4)nn32)ccc1O (stereo not given) -3.91%, O=C(Cn1ncc2c3ccccc3n(Cc3ccccc3)c2c1=O)NCc1ccccc1 3.9%, COC(=O)c1c(NC(=O)CCCOc2cccc(C)c2)sc2c1CCC(C)C2 (stereo not given) -5.4%, CCc1ccc(S(=O)(=O)c2nnn3c2nc(N2CCN(CC)CC2)c2sccc23)cc1 2.88%, COc1ccccc1C(=O)Nc1ccc(-c2nc3cc(C)cc(C)c3o2)cc1 6.75%, CCOC(=O)c1ccc(N2C(=O)c3n[nH]c(-c4ccco4)c3C2c2cccc(F)c2)cc1 (stereo not given) -15.4%, Cc1ccc(NC(=O)CSc2nc3ccc(NC(=O)c4cccc(Cl)c4)cc3s2)c(C)c1 -0.955%, Cc1ccc(CN(Cc2cccn2-c2nnc(N3CCCC3=O)s2)C(=O)Nc2cc(C)cc(C)c2)cc1 -7.47%, O=C(C1CCCN(S(=O)(=O)c2cccs2)C1)N1CCN(c2ccccc2F)CC1 (stereo not given) -28.9%, CN1C(=O)c2ccccc2Sc2ccc(NC(=O)NCc3ccccc3Br)cc21 -5.14%, Cc1nc2sc(C)c(C)n2c(=O)c1S(=O)(=O)NCCc1ccc(Cl)cc1 -2.55%, COc1ccc(-c2nc3c(c(SCC(=O)Nc4cc(C)cc(C)c4)n2)Cc2c(CO)cnc(C)c2O3)cc1 -5.97%, COc1cccc(CN2C(=O)C3(SCC(=O)N3c3ccc(F)cc3)c3ccccc32)c1 (stereo not given) -4.66%, Cc1ccc(CN(Cc2ccco2)C(=O)c2ccccc2Cl)o1 2.2%, O=C(NCc1cccc(Cl)c1)c1ccc2c(c1)nc1n2CCOC1 -0.306%, CC(=O)c1ccc(NC(=O)c2cn(C)c(=O)c3ccccc23)cc1 7.18%, Cc1cccc(N2CCN(C(=O)CCNS(=O)(=O)c3ccc4c(c3)CCN4C(=O)C3CC3)CC2C)c1 (stereo not given) 0.889%, O=C(NC1CC(=O)N(c2ccccc2)C1)c1cccs1 (stereo not given) -4.98%, Cc1cccc(C(=O)Nc2nc3c(s2)CCCC3)c1 -4.98%, COc1ccc(-c2nc(CCNC(=O)Cc3ccc(F)cc3)cs2)cc1 -0.289%, CCOC(=O)N1CCc2c(sc3c2c(=O)n(CCc2ccccc2)c(=O)n3Cc2ccc(C)cc2C)C1 3.06%
